Source: PubChem BioAssay AID463173 (ICCB-Longwood Screening Facility, Harvard Medical School, 2010)
Out of some 52,000 compounds screened, about 1,700 (3.3%) were called active. Cut-off read from the data, not from the text of the source: active = survival mostly below about 52% (no sharp cut-off); inactive = mostly above about 56%. The list shows a part of the results.

Tested on: Wild type
Assay: growth inhibition of S. aureus wild type versus tarO mutant, primary screen, teichoic acid synthesis inhibitors, RN4220, OD600 (AID 463173)
Details: S. aureus RN4220 wild type/DeltatarO growth, OD600, 18 h, hits give low values, screened at 18.75 µg/mL (by protocol)

Row | Compound | survival
1 | Cc1nn2c(C)c(C(=O)NC(C)c3ccccc3)cnc2c1-c1ccc(F)cc1 (stereo unspecified) | inactive: 121%
2 | O=C(c1ccc(Cl)cc1)C1CCN(C(=O)N2CCOCC2)CC1 | inactive: 103%
3 | Cc1cccc(C)c1-n1ncc(C(=O)O)c1C1CCN(C(=O)OC(C)(C)C)CC1 | inactive: 80%
4 | COc1ccc(C)cc1NC(=O)c1cc2c(=O)n3cccc(C)c3nc2s1 | inactive: 91%
5 | CCC(=O)N1CCCc2cc(S(=O)(=O)N3CCC(C(=O)NCc4ccc(F)cc4)CC3)ccc21 | inactive: 113%
6 | COc1ccc(Cl)cc1NC(=O)c1cn(C2CCCC2)c(=O)c2c1c1ccccc1n2C | inactive: 73%
7 | Cc1ccccc1C(=O)NCC1COc2ccccc2O1 (stereo unspecified) | inactive: 103%
8 | Cc1cccc(N(CC(=O)Nc2ccccc2C(F)(F)F)S(=O)(=O)c2ccccc2)c1C | inactive: 87%
9 | O=C(NCC(c1cccs1)S(=O)(=O)c1ccccc1)c1ccc(C(F)(F)F)cc1 (stereo unspecified) | inactive: 97%
10 | COc1ccc(OC)c(C2CC(=O)Oc3c2c(=O)n(C)c2ccccc32)c1 (stereo unspecified) | inactive: 78%
11 | CC(=NCCN1CCNCC1)C1=C(O)CC(C)(C)CC1=O | inactive: 116%
12 | COCCCNC(=O)CSc1nc2c(sc3ccccc32)c(=O)n1CCc1ccc(OC)c(OC)c1 | active: -6%
13 | Cc1cc(Cl)ccc1OCC(=O)N(Cc1ccco1)Cc1ccccc1F | inactive: 87%
14 | COc1ccc(CNC(=O)CSc2ncc3c(n2)-c2ccc(Cl)cc2N(Cc2ccccc2)S3(=O)=O)cc1 | inactive: 22%
15 | CCOc1ccccc1NC(=O)CCc1c(C)nn(-c2ccc(N3CCCCC3)nn2)c1C | inactive: 83%
16 | COc1ccccc1C(=O)NC1(C(F)(F)F)C(=O)Nc2c1c(=O)[nH]c(=O)n2-c1ccc(F)cc1 (stereo unspecified) | inactive: 155%
17 | COc1ccc(C(=O)CSc2ncn(-c3ccccc3)n2)cc1OC | inactive: 113%
18 | O=C(Nc1ccc(C(=O)N2CCCCC2)cc1)C1CCCCC1 | inactive: 98%
19 | CN(C)CCNC(=O)Cn1ccc2cc(S(=O)(=O)N3CCCCCC3)ccc21 | inactive: 72%
20 | Cc1cccc(Cn2c(-c3cccc(Br)c3)nc3ccccc32)c1 | inactive: 124%
21 | COc1cc(NC(=O)Cn2c(=O)n(Cc3ccco3)c(=O)c3oc4ccccc4c32)cc(OC)c1 | inactive: 71%
22 | Cc1ccc(-c2nc(Cn3c(=O)cc(-c4ccccc4)c4c(C)nn(C)c43)c(C)o2)cc1 | inactive: 120%

Row | Compound | survival
23 | O=C(CSc1nnc(-c2ccc([N+](=O)[O-])cc2)o1)Nc1ccccc1 | inactive: 84%
24 | Cc1cc(C)cc(NS(=O)(=O)c2ccc3[nH]cc(C(=O)NCc4ccccc4Cl)c(=O)c3c2)c1 | inactive: 111%
25 | CCOc1ccc(C(=O)N2CCC(c3noc(-c4ccc(S(=O)(=O)N5CCCC5)cc4)n3)CC2)cc1 | inactive: 108%
26 | CCc1c(-c2ccccc2)nc2ccccc2c1C(=O)NCc1ccc(C)cc1 | inactive: 90%
27 | CN(C1CCCCC1)S(=O)(=O)c1ccc2c(c1)c(=O)c(C(=O)N1CCN(c3ccccc3F)CC1)cn2C | inactive: 90%
28 | CCOC(=O)C(C)Nc1n[nH]c(=O)[nH]c1=O (stereo unspecified) | inactive: 127%
29 | Cc1ccc(OCCn2nnc3sc4c(c3c2=O)CCC(C)C4)cc1 (stereo unspecified) | inactive: 82%
30 | Cn1cnc(S(=O)(=O)N2CCC(C(=O)N3CCN(c4ccccc4F)CC3)CC2)c1 | inactive: 59%
31 | CCOc1ccc(NC(=O)c2cc(=O)c3ccc(C)c(C)c3o2)cc1 | inactive: 84%
32 | CSc1cccc(NS(=O)(=O)c2cn(C)c(C)n2)c1 | inactive: 59%
33 | CCOc1ccc2c(c1)NC(c1cccs1)=NC(c1ccc(F)cc1)=N2 | inactive: 74%
34 | COc1ccc(C2C(C(=O)Nc3ccc(C)cc3C)=C(C)Nc3nc4ccccc4n32)c(OC)c1 (stereo unspecified) | inactive: 65%
35 | COc1ccc2occ(CC(=O)Nc3ccc(S(=O)(=O)Nc4nc(C)cc(C)n4)cc3)c2c1 | inactive: 115%
36 | CCN(c1ccccc1)c1nnc(NC(=O)Nc2ccc(Br)cc2F)s1 | inactive: 98%
37 | COc1ccc(N2CCN(c3nc4ccc(C)cc4n4nnnc34)CC2)cc1 | active: -6%
38 | O=C(Nc1ccc(Br)cc1F)N1CCC2(CC1)Oc1ccccc1C(=O)N2Cc1ccccc1F | inactive: 95%
39 | CC(C)(C)c1ccc(C(=O)N2CCCCC2CCN2CCCCC2)cc1 (stereo unspecified) | inactive: 88%
40 | CCC(C)NC(=O)C1=CC(c2ccc3c(c2)OCO3)=NS(=O)(=O)N1C (stereo unspecified) | inactive: 85%
41 | COC(=O)c1cc(NC(=O)Cn2nc(-c3ccc(C)c(C)c3)ccc2=O)cc(C(=O)OC)c1 | inactive: 94%
42 | COC(=O)c1ccc(Cn2nnc3c(=O)[nH]c(C4CCCN(S(=O)(=O)c5cccc(Cl)c5)C4)nc32)cc1 (stereo unspecified) | inactive: 98%
43 | COc1ccc2c(c1)cc1c(=O)n(CC(=O)NCCCc3ccccc3)nc(C)n12 | inactive: 79%
44 | O=C(CN1C(=O)COc2ccc(S(=O)(=O)Nc3ccccc3)cc21)Nc1cccc(Cl)c1 | inactive: 80%

Row | Compound | survival
45 | COc1cccc2c1Oc1ncccc1N(C(=O)CCC(=O)NCc1ccccc1Cl)C2 | inactive: 49%
46 | CCOc1ccc(-c2cc(-c3nc(-c4ccc(OC)c(OC)c4)no3)[nH]n2)cc1 | inactive: 64%
47 | Cc1ccccc1CSc1ncc(CO)n1Cc1ccc(F)cc1 | inactive: 136%
48 | Cc1cc(C)nc(SCC(=O)Oc2ccc3oc(=O)cc(C)c3c2)n1 | inactive: 102%
49 | CCN(C(=O)Cn1cnc2sc(C)c(S(=O)(=O)N3CCN(c4ncccn4)CC3)c2c1=O)c1ccccc1F | inactive: 84%
50 | COc1ccc(Cc2nc3ccccc3n2Cc2ccccc2F)cc1 | active: 23%
51 | CC(=O)c1ccc(NC(=O)CC(c2cccs2)N2Cc3ccccc3C2=O)cc1 (stereo unspecified) | inactive: 49%
52 | O=C(c1ccccc1)n1nnc2ccccc21 | inactive: 103%
53 | COc1ccc(-c2cn3cccnc3n2)cc1NC(=O)c1cc(C)cc(C)c1 | inactive: 55%
54 | Cc1cc(Cl)ccc1OCC(=O)N(Cc1ccco1)Cc1ccco1 | inactive: 76%
55 | COc1ccc(CCNC(=O)CCc2c(C)c3cc4c(C)coc4c(C)c3oc2=O)cc1OC | inactive: 105%
56 | CCOC(=O)c1ccc(NC(=O)c2ccc(=O)n(Cc3cccc(C)c3)c2)cc1 | inactive: 60%
57 | CC(O)CNc1nc2c(c(=O)n(Cc3ccc(Cl)cc3)c(=O)n2C)n1C (stereo unspecified) | inactive: 128%
58 | COc1ccc(-c2nnc(C3CCN(S(=O)(=O)c4ccc(C)c(C)c4)CC3)o2)cc1 | inactive: 67%
59 | Cc1ccc(-n2ncc(C(=O)N3CCN(c4ccc(Cl)cc4)CC3)c2C2CCN(C(=O)OC(C)(C)C)CC2)c(C)c1 | inactive: 90%
60 | Cc1cc2c(cc1S(=O)(=O)CCC(=O)NCCc1ccccc1)OCC(=O)N2 | inactive: 83%
61 | CCC1CN(C(=O)Nc2ccc(C)c(F)c2)c2ccccc2S1 (stereo unspecified) | inactive: 140%
62 | Cc1ccc(NC(=O)CN2CCSc3ccc(S(=O)(=O)N4CCCC4)cc32)cc1C | inactive: 53%
63 | O=C1CN(C(=O)c2ccc(S(=O)(=O)N3CCCC3)cc2)C(c2ccccc2)c2cc(Br)ccc2N1 (stereo unspecified) | inactive: 90%
64 | CCOc1ccc(-c2nnc(SCC(=O)NCc3ccccc3)o2)cc1 | inactive: 112%
65 | COc1cc(OC)c(NS(=O)(=O)c2cc(-c3cnc(C4CC4)o3)ccc2C)cc1Cl | inactive: 66%
66 | Cc1nnc(N2CCC(C(=O)NCCc3ccccc3)CC2)c2nn(-c3ccc(Cl)cc3)c(C)c12 | inactive: 102%

Row | Compound | survival
67 | CCOc1ccc(-n2nc3cc(C)c(NC(=O)c4cc(OCC)c(OCC)c(OCC)c4)cc3n2)cc1 | inactive: 134%
68 | CC(C)(C)C(=O)NC1(C(F)(F)F)C(=O)Nc2c1c(=O)[nH]c(=O)n2-c1ccccc1 (stereo unspecified) | inactive: 70%
69 | CCn1c(C(=O)N2CCCC(C(=O)N3CCN(c4cc(C)ccc4C)CC3)C2)cc2sccc21 (stereo unspecified) | inactive: 32%
70 | CC(C)(C)C(=O)C1=C(O)C(=O)N(c2ccccc2)C1c1ccccc1 (stereo unspecified) | inactive: 102%
71 | CCN(CC)c1ccc(NC(=O)c2sc3nc4c(cc3c2N)CN(C)CC4)cc1 | inactive: 167%
72 | Cc1nncn1-c1ccc(C(=O)Nc2cc(F)ccc2F)cc1 | inactive: 71%
73 | Cc1ccc(CCNC(=O)CCS(=O)(=O)c2cc3c(cc2C)NC(=O)CO3)cc1 | inactive: 88%
74 | COc1cc(OC)c(OC)cc1CNc1sc2c(c1C(=O)Nc1ccccc1OC)CCC2 | inactive: 132%
75 | O=C(Nc1ccc2nc(SCC(=O)N3CCc4ccccc43)sc2c1)c1cccc(Cl)c1 | inactive: 112%
76 | CN(C(=O)CCS(=O)(=O)c1cc2c(cc1Cl)NC(=O)CO2)C1CCCCC1 | inactive: 83%
77 | CCOc1cc(NC(=O)C2CC2)c(OCC)cc1NC(=O)CCn1nnc2ccccc21 | inactive: 112%
78 | CCn1c(=N)c(C(=O)NC2CCCCC2)cc2c(=O)n3cc(C)ccc3nc21 | inactive: 70%
79 | COc1ccc(C)cc1NS(=O)(=O)c1cc2c3c(c1)CC(=O)N3CCC2 | inactive: 79%
80 | COc1ccc(NC(=O)CSc2nc3nc(C)c(Cc4ccccc4Cl)c(C)n3n2)cc1OC | inactive: 66%
81 | COc1ccc(Cl)cc1NC(=O)CCCN1C(=O)C(c2ccccc2)Oc2cccnc21 (stereo unspecified) | inactive: 104%
82 | COc1cc2c(cc1OC)C(COc1cc(C)cc(C)c1)N(C(=O)COc1ccccc1)CC2 (stereo unspecified) | inactive: 81%
83 | COc1ccc(-n2c(=O)c3ccccc3n(CC(=O)NCCc3ccc(OC)c(OC)c3)c2=O)cc1 | inactive: 104%
84 | CC(C)NC(=O)CSc1nc(-c2ccco2)cc(C(F)(F)F)n1 | inactive: 100%
85 | Cc1ccccc1CCNC(=O)c1cc2cc(S(=O)(=O)N3CCCCC3)ccc2n1C | active: -3%
86 | COc1ccc(-n2ncc(C(=O)Nc3cccc(C(F)(F)F)c3)c2C2CCN(C(=O)OC(C)(C)C)CC2)cc1 | inactive: 55%
